Assay results reported in PubChem BioAssay AID1159614 (National Center for Advancing Translational Sciences (NCATS), 2016).
The whole screen tested about 45,000 compounds, of which about 65 (0.1%) were called active. Calls come from the whole dose curve; as a rule, active = well fitted activation curve with a large enough effect; inconclusive = small, poorly fitted or top-dose-only effect; inactive = no such curve, though single readings can be large or run the other way. Some of the results follow.

Target: Galactocerebrosidase (Homo sapiens) (UniProt P54803)
Experiment: A Novel Cell-Based Assay to Identify Small Molecules for B -Galactocerebrosidase; note: 0% is about no effect; nearly all actives have a fitted effect of over 65% in size
Details: 145M-Twi-hGALC-G270D cells, HMU-beta-Gal fluorescence, 48 h; series mostly up to 57.5 µM; activation: at the top concentration
Summary of the method: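 qHTS, 1536-well; 145M-Twi-hGALC-G270D cells (WT line also made) in DMEM/F12 + 10% FBS; compound incubation on live cells; HMU-β-gal 0.1 mM final, pH 5.2, NaTC; carbonate stop; fluorescence increase = enhanced residual activity.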

Chain of UniProt P54803 (P54803 whole entry, looked up): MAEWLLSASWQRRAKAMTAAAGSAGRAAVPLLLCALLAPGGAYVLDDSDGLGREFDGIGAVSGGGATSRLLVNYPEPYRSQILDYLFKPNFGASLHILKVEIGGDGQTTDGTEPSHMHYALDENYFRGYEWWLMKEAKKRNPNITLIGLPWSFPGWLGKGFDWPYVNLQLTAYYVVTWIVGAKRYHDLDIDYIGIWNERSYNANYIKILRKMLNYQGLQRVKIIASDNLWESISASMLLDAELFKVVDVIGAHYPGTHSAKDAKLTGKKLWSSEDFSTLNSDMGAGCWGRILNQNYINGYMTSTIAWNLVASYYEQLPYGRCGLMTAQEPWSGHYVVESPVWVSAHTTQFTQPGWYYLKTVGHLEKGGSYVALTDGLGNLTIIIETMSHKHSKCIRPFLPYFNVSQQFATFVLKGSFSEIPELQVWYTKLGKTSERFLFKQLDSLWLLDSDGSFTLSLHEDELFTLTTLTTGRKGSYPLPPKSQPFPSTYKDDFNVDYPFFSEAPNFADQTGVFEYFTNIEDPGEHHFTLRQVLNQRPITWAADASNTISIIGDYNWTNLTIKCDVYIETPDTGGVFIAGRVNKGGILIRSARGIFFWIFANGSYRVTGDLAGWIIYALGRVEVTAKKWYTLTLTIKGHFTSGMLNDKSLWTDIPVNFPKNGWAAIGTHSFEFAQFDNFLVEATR

activation, inactive:
Cc1ccc(S(=O)(=O)c2nnn3c2nc(N2CCOCC2)c2sccc23)cc1C -9.12%
COc1ccccc1N1CCN(S(=O)(=O)c2c(C)sc3ncn(CC(=O)Nc4ccc(C)cc4Br)c(=O)c23)CC1 -23.2%
Cc1ccc(Nc2sc(C(=O)c3ccc(F)cc3)c(N)c2S(=O)(=O)c2ccc(C)cc2)cc1 -24%
Fc1ccc(-c2nn(-c3ccc(Cl)cc3)c3c2cnc2ccc(F)cc23)cc1 -7.89%
CCOc1ccccc1NC(=O)Cn1c(=O)n(Cc2cccs2)c(=O)c2cccnc21 4.5%
CCC(C(=O)NCCc1cc(OC)ccc1OC)n1nc(C)c2c(C)n(-c3ccccc3)nc2c1=O (stereo not given) 3.04%
CC(Sc1nc(=O)cc(N)n1CCc1ccccc1)C(=O)Nc1cccc(Cl)c1 (stereo not given) -4.02%
COc1ccc(-n2c(=O)c3ccccc3n(Cc3ccccc3Cl)c2=O)cc1 0.731%
COc1ccc(OC)c(NC(=O)Cn2c(=O)cc(C)c3c(C)nn(-c4cccc(Cl)c4C)c32)c1 -3.81%
CN1CC(=O)Nc2cc(C(=O)O)ccc21 -12.4%
O=C(CN1C(=O)CCSc2ccccc21)Nc1ccc(C(F)(F)F)cc1 14.2%
Cc1ccc(CNC(=O)C2CCCN(c3ncnc4onc(-c5ccc(F)cc5)c34)C2)cc1 (stereo not given) -8.99%
CCCN1Cc2cccc(C(=O)Nc3ccccc3C(=O)OC)c2C1=O -16.3%
CCOc1ccc(NC(=O)CN2CCN(CC(=O)Nc3ccc(F)cc3F)CC2)cc1 -10.9%
CCOC(=O)c1ccccc1NC(=O)Cn1ccn2nc(-c3ccc(OCC)cc3)cc2c1=O -16.4%
CCOc1ccccc1C(=O)Nc1ccc(S(=O)(=O)N(Cc2ccccc2)c2ccccc2)cc1 -13.1%
Cc1ccc(-n2cc(C(=O)OCc3ccc(F)c(F)c3)c3ccccc3c2=O)cc1 -10.6%
Cc1ccccc1-c1noc(-c2nnn(-c3ccccc3C)c2N)n1 -15.1%
Cc1cccc(C(=O)N(Cc2ccccc2F)C2CCS(=O)(=O)C2)c1 (stereo not given) -17.6%
COc1ccc(Cc2nc3c4cnn(-c5cccc(F)c5)c4ncn3n2)cc1 -2.07%
COC(=O)c1c(NC(=O)COc2cccc(C(F)(F)F)c2)sc2c1CCCC2 -17.7%
COc1ccc(N2CCN(C(=O)c3cnn(-c4ccc(OC)cc4)c3C3CCN(C(=O)OC(C)(C)C)CC3)CC2)cc1 -14.5%
COc1cc(C(=O)N2CCN(C(=O)COc3cccc(C)c3)CC2)cc(OC)c1OC -15.5%
CCN(CC)c1ccc(NS(=O)(=O)c2cc(-c3cc(C)no3)ccc2C)c(C)c1 -30.6%
CCCNC(=O)N1CCCN(S(=O)(=O)c2ccc3c(ccn3CC)c2)CC1 -3.46%
CCCCOc1cccc(C(=O)N2CCN(CCc3ccncc3)CC2)c1 -8.79%
Cc1c(Cl)cccc1-c1ccc(/C=C(\C#N)c2nc3ccccc3[nH]2)o1 -15.2%
Cc1cccc(C)c1-n1ncc(C(=O)NC2CCCC2)c1C1CCN(C(=O)OC(C)(C)C)CC1 12.3%
O=C(c1ccc2c(c1)CCN2S(=O)(=O)c1ccc(Cl)cc1)N1CCN(c2ccc(F)cc2)CC1 -11.4%
CCOc1ccc(NC(=O)NCc2cccn2Cc2ccccc2)cc1 -16%
Cc1nnc(N2C(=O)c3oc4ccccc4c(=O)c3C2c2ccc(Cl)cc2)s1 (stereo not given) -22.6%
Cc1ccc2c(c1)C(=O)OC(C(=O)Nc1ncc(Cc3ccc(Cl)cc3)s1)C2 (stereo not given) -13.1%
Cc1c(C(=O)OC2CCCCCC2)[nH]c2c1C(=O)CC(c1ccc(Cl)cc1)C2 (stereo not given) -22.4%
O=C(COc1ccc(Cl)cc1Cl)Nc1cccc2cccnc12 -11%
CC(=O)O[C@]1(C(C)=O)CC[C@H]2[C@@H]3C[C@H](C)C4=CC(=O)CC[C@]4(C)[C@H]3CC[C@@]21C -3.92%
Cc1cc(C)cc(NC(=O)Cn2cc(C(=O)c3cccs3)c3ccccc32)c1 -9.07%
COc1ccc(Nc2c(-c3ccc(C)o3)nc3cc(C)ccn23)cc1 -11.4%
Cc1ccc2oc(-c3ccc(C)c(NC(=O)/C=C/c4ccc(Cl)cc4)c3)nc2c1 0.365%
Clc1cccc(C(c2ccc3nc[nH]c3c2)n2ccnc2)c1 (stereo not given) -7.38%
Cc1ccc2[nH]c3c(=O)n(CC(=O)N(CCN(C)C)Cc4ccccc4)ncc3c2c1 -10.8%
CC(=O)N1CCC(N(Cc2ccco2)C(=O)Nc2ccc(C)c(Cl)c2)CC1 -2.07%
CC(C)NCC(O)c1ccc2ccccc2c1 (stereo not given) -13.9%
COc1cc(NC(=O)c2nc3nc(C)cc(C(F)F)n3n2)c(OC)cc1Cl -6.82%
CCOc1ccc(N2CC(NC(=O)C3CCCCC3)CC2=O)cc1 (stereo not given) 4.7%
Cc1ccc(CNC(=O)c2ccc(CN3CC(=O)N4CCCCC4C3=O)cc2)cc1 (stereo not given) -16.8%
CCOC(=O)CNC(=O)N1[C@H](c2cccs2)[C@@H](C)C(=O)[C@@H](C)[C@@H]1c1cccs1 -3.8%
O=S1(=O)c2ccccc2N(Cc2ccc(Cl)cc2)c2ccccc21 -2.57%
CCc1c(C)nc2nncn2c1NCc1ccccc1 -9.38%
COc1ccc(S(=O)(=O)N2CCN(c3cccc(C)c3C)CC2)c2ccccc12 7.11%
COc1ccc2c(c1)c(=O)c(C(=O)c1ccc(F)cc1)cn2CC(=O)Nc1ccc2c(c1)OCO2 -19.9%
CCCCOc1ccc(Cn2c(=O)oc3ccc(C)cc32)cc1OC -14.8%
CCc1nnc(NC(=O)c2nc(SCc3ccccc3F)ncc2Cl)s1 -7.08%
COc1ccc(Cl)cc1C(=O)Nc1nnc2n1CCS2 -8.73%
Cc1ccc(NC(=O)C2CCN(c3nnc(C)c4c(C)n(-c5ccccc5)nc34)CC2)c(Cl)c1 7.86%
CC(C)CCNC(=O)Cn1c(-c2cccs2)cc2cc(F)ccc21 -9.4%
Cc1cc(Br)ccc1NC(=O)c1sc2nc3n(c(=O)c2c1C)CCCC3 -12.8%
O=C(CCCCCn1c(=O)c2sccc2n(Cc2ccc(Cl)cc2)c1=O)NCc1ccc2c(c1)OCO2 -23.7%
Cc1ccc(S(=O)(=O)N(CC(=O)NCCSc2ccc(Cl)cc2)c2ccccc2C)cc1 -17.9%
COCCCNC(=O)CCn1c(=O)c2ccccc2n(CC(=O)Nc2cc(Cl)ccc2OC)c1=O -21.4%
CCN(Cc1ccccc1)Cc1c(O)ccc2oc(C)c(C(=O)Nc3ccc(C)cc3C)c12 -9.16%
C=Cc1ccc(Cn2c(=O)n(-c3cccc(Cl)c3)c(=O)c3c4c(sc32)CN(C(C)=O)CC4)cc1 -6.73%
O=C(NCCc1ccc(Cl)cc1)c1ccc2c(c1)N(Cc1ccc(Cl)cc1)C(=O)CS2 -8.24%
Cc1cc(C)c(NC(=O)Cn2nnc(S(=O)(=O)c3ccc(C)c(C)c3)c2N)c(C)c1 -28.1%
CC(C)c1ccc(NC(=O)N2c3ccccc3Sc3ccccc32)cc1 -13.4%
CN1C(C(=O)Nc2cccc(O)c2)=CC(c2ccco2)=NS1(=O)=O -9.09%
CCCCN(CC)c1nc(-c2ccccc2F)nc2ccccc12 -11.8%
Cc1cccc(N2CCn3c2nc2c3c(=O)n(C/C=C/c3ccccc3)c(=O)n2C)c1 -4.61%
Cc1ccc(NC(=O)Cn2c(=O)n(Cc3nc(C)no3)c(=O)c3cc4c(cc32)OCO4)cc1 -3.26%
Cc1cc(NS(=O)(=O)c2ccc3oc(=O)c4ncn(C)c4c3c2)ccc1Br -7.99%
CC(C)c1ccc(N2C(=O)CSC23C(=O)N(Cc2ccccc2)c2ccccc23)cc1 (stereo not given) -43%
COc1cccc(CNC(=O)C(C)n2c(=O)cc(-c3ccccc3)c3c(C)nn(C)c32)c1 (stereo not given) -36.9%
O=C(Cn1cc(SCc2c(F)cccc2Cl)c2ccccc21)N1CCCC1 -44%
O=C(/C=C/c1ccccc1Cl)Nc1nc(-c2cccs2)ns1 -3.08%
COc1ccc(NC(=O)N2CCN(S(=O)(=O)c3ccc4c(ccn4C)c3)CC2)c(OC)c1 6.06%
CN(Cc1ccccc1)C(=O)CSc1nc(-c2ccc(F)cc2)cc(C(F)(F)F)n1 3.08%
COCCOC(=O)c1c(-c2ccccc2)c(-c2ccccc2)nn(C)c1=O -5.96%
COc1ccc(NC(=O)C2CCCN(c3nnc(C)c4c(C)n(-c5ccccc5)nc34)C2)cc1Cl (stereo not given) -6.89%
CCc1ccccc1NC(=O)Cn1c(=O)n(Cc2ccc(OC)cc2)c(=O)c2oc3ccccc3c21 -3.67%
CCOc1ccc(CC(=O)Nc2c(C(=O)c3ccccc3)oc3ccc(OC)cc23)cc1OCC -15.1%
CCCC(CCC)C(=O)NC1CC(=O)N(c2ccc3c(c2)OCCO3)C1 (stereo not given) -8.35%
O=C(Nc1nnc(S(=O)(=O)N2CCc3ccccc32)s1)c1cccc(Cl)c1 -3.48%
Cc1ccc(/C=C(\C#N)c2nc3ccccc3c(=O)[nH]2)cc1 -13.9%
Cc1ccc(C)c(N2CCN(C(=O)c3cnn(-c4ccccc4Cl)c3C3CCN(C(=O)OC(C)(C)C)CC3)CC2)c1 -9.87%
COc1ccc(Cc2nc3ccc(C(=O)NCc4ccccc4Cl)cc3o2)cc1 -25.5%
O=C(CSc1nc(-c2ccc(F)cc2)[nH]c1-c1ccc(F)cc1)Nc1ccc2c(c1)OCCO2 -11.8%
Cc1ccc(NC(=O)C2CC(=O)N(c3ccc(OC(C)C)cc3)C2)cc1 (stereo not given) -0.941%
CCN(CC)c1ccc(NC(=O)C2CCN(S(=O)(=O)c3cnc[nH]3)CC2)c(C)c1 -10.1%
CCOC(=O)c1c(C)c(-c2ccccc2)n(CC(=O)NC(CC)Cc2ccccc2)c1C (stereo not given) -10.6%
O=C(COc1ccc(Cl)cc1)Nc1ccccc1OCc1cc(=O)n2ccccc2n1 -7.56%
CCOc1ccc(CC(=O)NCC(c2cccs2)S(=O)(=O)c2ccc(F)c(C)c2)cc1 (stereo not given) -3.31%
CCc1ccc(NC(=O)C(CC)n2c(=O)c(-c3ccccc3NC(C)=O)nc3ccccc32)cc1 (stereo not given) -4.34%
COc1ccc(S(=O)(=O)NCC(c2ccc(N(C)C)cc2)N2CCc3ccccc32)cc1OC (stereo not given) 7.29%
CCc1ccccc1N(C)C(=O)c1ccc2c(=O)n3c(nc2c1)CCCCC3 -6.34%
Cc1ccc(Nc2nnc(-c3ccc(C)c(S(N)(=O)=O)c3)c3ccccc23)cc1 -11.6%

Potency, inactive:
O=C(O)c1cc(-c2ccccc2)nc2ccccc12
